Test results reported in the supplement of paper PMC4967469.

Tests used:
Assay in all cases: Viability of human cancer cell lines after 72 h of drug (GDSC screen)
XMD11-85h = compound: COc1cc(C(=O)NC2CCN(C)CC2)ccc1Nc1ncc2c(n1)N(C1CCCC1)CCC(=O)N2C(C)C [XMD11-85h]; conditions: top dose 10 µM; top dose inferred
Experimental: (§1)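 Human cancer cell lines in 384-well plates, medium with 10% serum, drug for 72 h over a 256-fold dose range (nine 2-fold or five 4-fold steps up to the top dose). Adherent lines were fixed and stained with the nucleic acid dye Syto60, suspension lines read with resazurin; signal relative to control wells, capped at 0 and 100%. One two-parameter sigmoid per drug and line, fitted in a mixed model over all curves with the slope shared within a line.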

AZD6482 = compound: Cc1cc([C@@H](C)Nc2ccccc2C(=O)O)c2nc(N3CCOCC3)cc(=O)n2c1 [AZD6482]
Experimental: as §1

BMN-673 = compound: Cn1ncnc1[C@H]1c2n[nH]c(=O)c3cc(F)cc(c23)N[C@@H]1c1ccc(F)cc1 [BMN-673]; conditions: top dose 10 µM; top dose inferred
Experimental: as §1

MLN4924 = compound: NS(=O)(=O)OC[C@@H]1C[C@@H](n2ccc3c(N[C@H]4CCc5ccccc54)ncnc32)C[C@@H]1O [MLN4924]; conditions: top dose 1 µM; top dose inferred
Experimental: as §1

[1] = top dose 5 µM, screen: GDSC drug entry 1066, top dose inferred
[2] = top dose 5.12 µM, screen: GDSC drug entry 156

Cell Line	AUC (XMD11-85h)	IC50 (XMD11-85h) [µM]	AUC (AZD6482; [1])	IC50 (AZD6482; [1]) [µM]	AUC (AZD6482; [2])	IC50 (AZD6482; [2]) [µM]	AUC (BMN-673)	IC50 (BMN-673) [µM]	AUC (MLN4924)	IC50 (MLN4924) [µM]
A498 (kidney, adherent)	0.933	> 10	0.545	0.441	0.407	0.156	0.914	> 10	0.761	0.535
A549 (lung adenocarcinoma, adherent)	0.947	> 10	0.916	> 5	–	–	0.747	3.55	0.815	0.637
A673 (rhabdomyosarcoma, adherent)	0.989	> 10	0.921	> 5	0.948	> 5.12	0.159	0.066	0.622	0.13
A704 (kidney, adherent)	0.964	> 10	0.756	1.66	0.951	> 5.12	0.928	> 10	0.948	> 1
A2780 (ovary, semi-adherent)	0.983	> 10	0.791	2.33	0.882	> 5.12	0.479	0.546	0.813	0.562
ALL-PO (lymphoblastic leukaemia, suspension)	0.877	> 10	0.74	1.6	0.925	> 5.12	0.981	> 10	0.915	> 1
ALL-SIL (T-cell leukaemia, suspension)	0.901	9.8	0.93	> 5	0.912	> 5.12	0.728	2.49	0.837	0.54
AMO-1 (haematopoietic neoplasm, suspension)	0.949	> 10	0.979	> 5	0.962	> 5.12	0.966	> 10	0.909	> 1
ASH-3 (thyroid, adherent)	0.973	> 10	0.903	> 5	0.906	> 5.12	0.784	4.24	0.866	0.892
ATN-1 (T-cell lymphoblastic leukaemia, suspension)	0.962	> 10	0.854	3.55	0.959	> 5.12	0.821	5.32	0.902	> 1
AsPC-1 (pancreas, adherent)	0.883	> 10	0.892	> 5	–	–	0.901	> 10	0.94	> 1
BB65-RCC (kidney, adherent)	0.966	> 10	0.923	> 5	0.842	4.44	0.707	2.63	0.635	0.156
BL-41 (Burkitt lymphoma, suspension)	0.987	> 10	0.971	> 5	0.952	> 5.12	0.487	0.58	0.803	0.364
BT-20 (breast, adherent)	0.982	> 10	0.736	1.77	0.589	0.597	0.902	> 10	0.967	> 1
BT-483 (breast, adherent)	0.975	> 10	–	–	0.95	> 5.12	0.821	> 10	0.975	> 1
Becker (glioma, adherent)	0.927	> 10	0.623	0.711	0.524	0.375	0.365	0.251	0.753	0.371
C32 (melanoma, adherent)	0.962	> 10	0.904	> 5	0.987	> 5.12	0.872	> 10	0.887	> 1
CADO-ES1 (Ewing sarcoma, suspension)	0.977	> 10	0.983	> 5	–	–	0.602	1.2	0.915	> 1
CAS-1 (glioma, adherent)	0.955	> 10	–	–	0.788	3.2	0.915	> 10	0.979	> 1
CCK-81 (large intestine, adherent)	0.934	> 10	0.961	> 5	0.95	> 5.12	0.927	> 10	0.989	> 1
CHSA0011 (chondrosarcoma, adherent)	0.916	> 10	0.898	> 5	0.945	> 5.12	0.824	9.49	0.931	> 1

Cell Line	AUC (XMD11-85h)	IC50 (XMD11-85h) [µM]	AUC (AZD6482; [1])	IC50 (AZD6482; [1]) [µM]	AUC (AZD6482; [2])	IC50 (AZD6482; [2]) [µM]	AUC (BMN-673)	IC50 (BMN-673) [µM]	AUC (MLN4924)	IC50 (MLN4924) [µM]
CHSA0108 (chondrosarcoma, adherent)	0.856	> 10	0.855	> 5	0.811	3.26	0.877	> 10	0.786	0.506
CHSA8926 (chondrosarcoma, adherent)	0.942	> 10	0.886	> 5	0.879	> 5.12	0.937	> 10	0.966	> 1
CL-34 (large intestine, adherent)	0.986	> 10	0.987	> 5	–	–	0.973	> 10	0.809	0.588
COLO-668 (small cell lung carcinoma, adherent)	0.987	> 10	0.895	> 5	0.926	> 5.12	0.797	4.72	0.87	0.933
COLO-684 (endometrium, suspension)	0.947	> 10	0.782	2.37	0.745	1.78	0.962	> 10	0.922	> 1
COLO-783 (melanoma, adherent)	0.99	> 10	0.955	> 5	0.986	> 5.12	0.936	> 10	0.889	> 1
COLO-800 (melanoma, adherent)	0.906	> 10	0.969	> 5	–	–	0.04	< 0.0391	0.512	0.0671
COR-L23 (large cell lung carcinoma, adherent)	0.986	> 10	0.941	> 5	0.974	> 5.12	0.901	> 10	0.913	> 1
COR-L95 (small cell lung carcinoma, adherent)	0.981	> 10	0.987	> 5	0.985	> 5.12	0.927	> 10	0.947	> 1
Calu-3 (lung adenocarcinoma, adherent)	0.979	> 10	0.941	> 5	0.795	3.08	0.75	4.01	0.858	> 1
Capan-2 (pancreas, adherent)	0.983	> 10	0.981	> 5	0.954	> 5.12	0.894	> 10	0.966	> 1
D-263MG (glioma, adherent)	0.934	> 10	0.74	1.78	0.899	> 5.12	0.829	8.08	0.824	0.77
D-392MG (glioma, adherent)	0.962	> 10	0.871	> 5	0.83	4.99	0.745	4.16	0.743	0.407
D-542MG (glioma, adherent)	0.972	> 10	0.931	> 5	0.693	1.27	0.912	> 10	0.972	> 1
DG-75 (Burkitt lymphoma, suspension)	0.878	> 10	0.68	1	0.987	> 5.12	0.932	> 10	0.948	> 1
DIFI (large intestine, adherent)	0.986	> 10	0.984	> 5	–	–	0.9	> 10	0.912	> 1
DMS-53 (small cell lung carcinoma, adherent)	0.975	> 10	0.934	> 5	0.969	> 5.12	0.752	3.55	0.969	> 1
DND-41 (T-cell leukaemia, suspension)	0.903	> 10	0.971	> 5	0.95	> 5.12	0.681	1.86	0.871	0.757
EC-GI-10 (oesophagus, adherent)	0.97	> 10	0.892	> 5	0.989	> 5.12	0.701	2.29	0.56	0.0908
EFM-192A (breast, adherent)	0.977	> 10	0.958	> 5	0.879	> 5.12	0.969	> 10	0.946	> 1
EKVX (lung adenocarcinoma, adherent)	0.932	> 10	0.756	4.19	0.912	> 5.12	0.93	> 10	0.95	> 1

By IC50 is meant the dose at which the fit gives 50% viability; a fit beyond the top or the lowest dose is shown as a bound at that dose. AUC sums up the same curve from the lowest dose to the 256-fold higher top dose; values near 1 show little effect. Any top dose called inferred was derived from the fitted curves, not read from the paper. For some assays here: Drugs with an entry number were screened twice under separate entries, and the two screens often disagree.
